Laboratory results reported in PubChem BioAssay (NCATS).
Where “and” joins values, the source holds several entries; their conditions need not be identical. Equal values may be shown once. This list was built around the results that the source calls inconclusive (neither active nor inactive); the mix of calls is not that of the screen. For some of these results: Potencies of inconclusive entries are doubtful fits and often do not repeat. Calls of active or inactive are those of the source. Calls follow the shape of the dose curve; as a rule, active = well fitted curve in the direction sought with a large enough effect; inconclusive = small, poorly fitted or top-dose-only effect, or another doubt; inactive = no such curve, though single readings can be large; an effect the other way counts as inactive or inconclusive.

Experiments:
[1] = test system: Zika virus NS2B-NS3 protease (linked); test: 384 well plate NINDS AMC confirmatory qHTS for Zika virus inhibitors (AID 1347163); also: potency is read from the fitted curve at half-maximal effect; nearly all actives have a fitted effect of over 50% in size
Procedure, shortened: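 Enzyme (5, 30 or 60 nM final) first met test compounds for ~15 min. The AMC-tagged peptide Ac-VKTGKR-AMC followed at 30 microM. Fluorescence was then recorded at 25 min and scaled against no-enzyme and no-inhibitor wells.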

[2] = test system: Zika virus NS2B-NS3 protease (linked construct); test: 384 well plate NINDS Rhodamine confirmatory qHTS for Zika virus inhibitors (AID 1347164);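 also: fluorescence from protease cleavage of Ac-LKRR-rhodamine 110 substrate; top concentration of the series differs between compounds; plate controls were no-inhibitor control for no effect and no-enzyme control for full effect; nearly all actives have a fitted effect of over 65% in size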
Procedure, shortened: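 Linked NS2B-NS3 protease (final 5, 30 or 60 nM) preincubated ~15 minutes with compounds, then 10 microM Ac-LKRR-Rhodamine 110 added. Fluorescence (485/538 nm) read after 25 minutes at room temperature, normalized to no-enzyme and no-inhibitor controls.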

[3] = HepG2 cells viability qHTS for Zika virus inhibitors (AID 1347168); conditions: Zika counter-screen; also: potency is read from the fitted curve at half-maximal effect
Procedure, shortened: (§1)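 To flag cytotoxic protease inhibitors, viability is measured by ATP-dependent luminescence (CellTiter Glo) after cells attached overnight receive compound for 24 to 48 hours in DMEM with 4% FBS.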

[4] = Tertiary RLuc qRT-PCR qHTS assay for Zika virus inhibitors (AID 1347169); also: potency is read from the fitted curve at half-maximal effect; nearly all actives have a fitted effect of over 55% in size
Procedure, shortened: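 Vero cells (1,000/well) infected with recombinant ZIKV-RLuc (Cambodian) at MOI 1-2 after compound addition, 48-72 hrs at 37 degrees C. Live-cell Renilla luciferase substrate added; luminescence read after 1-1.5 hrs.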

[5] = test system: Zika virus NS2B-NS3 protease (unlinked complex); test: Primary screen GU Rhodamine qHTS for Zika virus inhibitors: Unlinked NS2B-NS3 protease assay (AID 1347159); also: nearly all actives have a fitted effect of over 60% in size; also: potency is read from the fitted curve at half-maximal effect; as to activity change, negative = inhibition: % is scaled to controls: 0 for no effect and ±100 for the full control effect
Procedure, shortened: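 Enzyme 25 nM in Tris-HCl pH 8.0 + 0.01% Tween 20; compounds up to 114 microM, 15 min RT dark; + Rhod110 substrate 1.5 microM; read t0 and 15 min; delta fluorescence → % inhibition → 4-parameter Hill fit.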

[6] = Vero cells viability qHTS for Zika virus inhibitors (AID 1347167); conditions: cytotoxicity counter-screen (Zika); also: potency is read from the fitted curve at half-maximal effect
Procedure, shortened: as §1

[7] = biological target: Lysine-specific demethylase 5B (Homo sapiens) (UniProt Q9UGL1); test: Optimization screen for KDM5B Histone Demethylases FDH coupled qHTS against the LOPAC library (AID 1347166); conditions: KDM5B demethylation, FDH-coupled NADH fluorescence (FDH is formaldehyde dehydrogenase); activity, negative = inhibition: at 57.5 µM (top of the series); also: potency is read from the fitted curve at half-maximal effect
Sequence of UniProt Q9UGL1 (Q9UGL1 whole entry, looked up): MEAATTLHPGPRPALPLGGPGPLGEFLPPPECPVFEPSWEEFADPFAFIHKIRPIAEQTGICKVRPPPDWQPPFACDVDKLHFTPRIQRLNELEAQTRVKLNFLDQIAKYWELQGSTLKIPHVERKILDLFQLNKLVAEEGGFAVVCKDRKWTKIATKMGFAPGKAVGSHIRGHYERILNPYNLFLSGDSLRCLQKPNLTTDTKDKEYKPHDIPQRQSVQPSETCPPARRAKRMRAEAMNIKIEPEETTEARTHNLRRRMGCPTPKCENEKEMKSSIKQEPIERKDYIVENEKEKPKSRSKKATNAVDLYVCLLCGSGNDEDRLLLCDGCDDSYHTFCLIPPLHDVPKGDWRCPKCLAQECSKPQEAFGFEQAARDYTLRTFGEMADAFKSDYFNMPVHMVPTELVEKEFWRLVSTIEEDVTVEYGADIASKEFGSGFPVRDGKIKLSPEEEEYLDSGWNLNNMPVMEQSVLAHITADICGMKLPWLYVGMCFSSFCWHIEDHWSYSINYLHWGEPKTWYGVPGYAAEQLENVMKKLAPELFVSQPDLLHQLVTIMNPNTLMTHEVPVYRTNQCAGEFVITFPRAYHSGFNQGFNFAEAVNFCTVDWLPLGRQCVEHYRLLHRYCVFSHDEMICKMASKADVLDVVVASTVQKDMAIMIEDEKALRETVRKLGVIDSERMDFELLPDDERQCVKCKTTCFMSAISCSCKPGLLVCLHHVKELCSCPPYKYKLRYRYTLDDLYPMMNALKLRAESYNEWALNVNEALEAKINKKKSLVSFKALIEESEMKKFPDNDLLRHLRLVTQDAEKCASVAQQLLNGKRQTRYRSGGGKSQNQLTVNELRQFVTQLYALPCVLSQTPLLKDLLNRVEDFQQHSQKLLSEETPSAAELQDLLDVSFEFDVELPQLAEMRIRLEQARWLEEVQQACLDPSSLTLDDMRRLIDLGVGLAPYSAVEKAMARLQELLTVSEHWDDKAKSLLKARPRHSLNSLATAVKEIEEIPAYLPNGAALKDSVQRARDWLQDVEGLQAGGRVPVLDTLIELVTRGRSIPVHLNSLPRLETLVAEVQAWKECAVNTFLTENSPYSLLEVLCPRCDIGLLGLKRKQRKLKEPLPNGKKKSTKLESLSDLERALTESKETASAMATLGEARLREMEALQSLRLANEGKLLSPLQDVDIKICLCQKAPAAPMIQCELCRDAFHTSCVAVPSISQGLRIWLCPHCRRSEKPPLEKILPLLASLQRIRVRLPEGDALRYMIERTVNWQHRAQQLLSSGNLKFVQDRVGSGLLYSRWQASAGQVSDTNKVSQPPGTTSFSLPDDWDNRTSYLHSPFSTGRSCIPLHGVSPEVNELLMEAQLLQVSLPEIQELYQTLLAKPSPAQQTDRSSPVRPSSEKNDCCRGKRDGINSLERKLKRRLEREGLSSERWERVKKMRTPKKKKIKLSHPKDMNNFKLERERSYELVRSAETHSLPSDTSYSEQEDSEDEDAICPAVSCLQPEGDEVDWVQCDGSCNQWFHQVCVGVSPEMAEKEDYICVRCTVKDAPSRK
Procedure, shortened: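 KDM5BDeltaAP (200nM final) in 50mM HEPES pH 7.5, 0.01% Tween-20 was preincubated with compound for 10 min at room temperature. A substrate mix of 12.5uM H3K4Me3, 25uM a-ketoglutarate, ascorbate, Fe2+, NAD+ and formaldehyde dehydrogenase was then added. NADH fluorescence (340/450 nm) was read initially and after 30 min.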

[8] = qHTS to identify inhibitors of the type 1 interferon - major histocompatibility complex class I in skeletal muscle: primary screen against the NCATS LOPAC collection (AID 1347405); conditions: iHSKM muscle cells, IFN-b-induced MHC-I HiBiT luminescence, 24 h; activity change, negative = inhibition: at 45.9 µM (top of the series);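 also: human myoblasts with HiBiT tag on endogenous HLA-B stimulated by IFN-beta; lytic HiBiT luminescence reporting HLA-B protein level; potency is read from the fitted curve at half-maximal effect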
Procedure, shortened: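 HLA-B HiBiT myoblasts, IFN-b 4 ng/ml, dexamethasone-free medium; compounds 7-pt 1:4.3 titration, top 46 uM final; 24 h at 37 C; Nano-Glo HiBiT lytic reagent, 10 min RT, luminescence.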

[9] = qHTS to identify inhibitors of the type 1 interferon - major histocompatibility complex class I in skeletal muscle: primary screen against the NCATS Mechanism Interrogation Plate v5.0 (MIPE) Libary (AID 1347411); conditions: iHSKM cells + IFN-b, HiBiT-tagged MHC-I luminescence, 24 h; activity change, negative = inhibition: at 45.8 µM (top of the series); also: potency is read from the fitted curve at half-maximal effect; nearly all actives have a fitted effect of over 65% in size
Procedure, shortened: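 HLA-B HiBit myoblasts, dexamethasone-free medium + 4 ng/ml IFN-b, 24 h compound, 11-pt 1:3 from 46 uM final. Readout: Nano-Glo HiBiT lytic luminescence after 10 min lysis, RT.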
Tags tell the direction and shape of the fitted curve.

With `CC(C)N=c1cc2n(-c3ccc(Cl)cc3)c3ccccc3nc-2cc1Nc1ccc(Cl)cc1` the Potency [1] was inconclusive: 31.6 µM [inhibitor, full curve, poor fit], the Potency [2] was “inactive” and the Potency [3] was inconclusive: 11.7 µM [cytotoxic, partial curve, poor fit]. The Potency [4] was inconclusive: 6.58 µM [inhibitor, full curve].

With `Cc1cc(SCc2sc(-c3ccc(C(F)(F)F)cc3)nc2C)ccc1OCC(=O)O` the Potency [5] was active: 3.55 µM, the Potency [1] was active: 2.82 µM and inconclusive: 17.8 µM [inhibitor, full curve] and the Potency [6] was inconclusive: 29.4 µM [cytotoxic, partial curve, poor fit]. For the same molecule, the Potency [4] was active: 14.7 µM and inconclusive: 26.2 µM [inhibitor, single point].

With `COc1cc2ncnc(Nc3cccc(Cl)c3)c2cc1OC` the Potency [5] was “inactive”, the Potency [7] was inconclusive: 31.6 µM [inhibitor, partial curve, poor fit] and the Potency [8] was inconclusive: 28.2 µM [inhibitor, partial curve, poor fit]. For the same molecule, the Potency [9] was active: 29.4 µM.

For `Cn1c(=O)c(-c2c(Cl)cccc2Cl)cc2cnc(Nc3cccc(C(=O)O)c3)nc21`, the Potency [5] was active: 7.94 µM and the Potency [4] was inconclusive: 1.31 µM [inhibitor, full curve].

With `Cc1cnc(CNC(=O)c2c(=O)c3ccc(N4CCCN(C)CC4)nc3n3c2sc2ccccc23)cn1` the activity change, negative = inhibition [5] was inactive: 5.25% [at 19.1 µM].

With `COc1cccc2c(NCc3ccccc3)nc(-n3c(N)nc4ccccc43)nc12` the Potency [5] was active: 50.1 µM.
